Test results reported in PubChem BioAssay AID1159614 (National Center for Advancing Translational Sciences (NCATS), 2016).
The whole screen tested about 45,000 compounds, of which about 65 (0.1%) were called active. The call rests on the fitted dose curve; in most records, active means well fitted activation curve with a large enough effect; inconclusive means small, poorly fitted or top-dose-only effect; inactive means no such curve, though single readings can be large or run the other way. The list shows a part of the results.

Target: Galactocerebrosidase (Homo sapiens) (UniProt P54803)
Assay: A Novel Cell-Based Assay to Identify Small Molecules for B -Galactocerebrosidase; further: 0% is about no effect; nearly all actives have a fitted effect of over 65% in size
Conditions: 145M-Twi-hGALC-G270D cells (Twitcher mouse brain line with human GALC G270D), HMU-beta-Gal fluorescence, 48 h; series mostly up to 57.5 µM; activation: at the top concentration
In short: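 Brain-derived Twitcher mouse 145M-Twi cells stably expressing human GALC-G270D or wild-type GALC, treated live, then residual GALC activity read by fluorescence of HMU-b-Gal substrate (0.1 mM final) in citrate-phosphate buffer pH 5.2 with sodium taurocholate. Signal increase indicates enhancement.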

UniProt P54803, sequence (P54803 whole entry, looked up): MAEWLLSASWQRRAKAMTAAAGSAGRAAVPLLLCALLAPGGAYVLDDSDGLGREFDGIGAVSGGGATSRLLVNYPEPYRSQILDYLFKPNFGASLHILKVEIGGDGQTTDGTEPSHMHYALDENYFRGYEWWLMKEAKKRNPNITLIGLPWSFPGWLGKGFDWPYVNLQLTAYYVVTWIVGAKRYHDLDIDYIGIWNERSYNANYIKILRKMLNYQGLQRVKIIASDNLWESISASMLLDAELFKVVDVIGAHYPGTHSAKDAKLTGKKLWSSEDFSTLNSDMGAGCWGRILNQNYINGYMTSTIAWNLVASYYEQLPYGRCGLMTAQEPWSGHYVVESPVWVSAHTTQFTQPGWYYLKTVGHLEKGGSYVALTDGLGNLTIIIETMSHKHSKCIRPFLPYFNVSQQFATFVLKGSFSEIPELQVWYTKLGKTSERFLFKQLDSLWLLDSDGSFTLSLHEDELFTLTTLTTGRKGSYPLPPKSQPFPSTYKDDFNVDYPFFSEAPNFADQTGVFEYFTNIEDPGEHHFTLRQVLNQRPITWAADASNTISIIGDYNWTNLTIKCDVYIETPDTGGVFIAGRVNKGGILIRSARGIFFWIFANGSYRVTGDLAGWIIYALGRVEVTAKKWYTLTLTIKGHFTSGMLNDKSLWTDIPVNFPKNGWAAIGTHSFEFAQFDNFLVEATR

activation, inactive:
COc1cccc(CNC(=O)c2ccc3oc(=O)n(Cc4ccccc4)c3c2)c1 -3%
COCCNC(=O)c1ccc2c(c1)NC(=O)C(CS(=O)(=O)Cc1ccc(F)cc1Cl)N2 (stereo unspecified) -0.589%
O=C1C2=C(Nc3ccccc3SC2c2ccc(C(F)(F)F)cc2)c2ccccc21 (stereo unspecified) -7.07%
Cc1ccccc1CNC(=O)CCCn1ncn2c(cc3occc32)c1=O -7.87%
Cc1cccc(-n2nnc(-c3nc(-c4cccs4)no3)c2N)c1C -10.6%
O=C(CN1C=NS(=O)(=O)c2ccccc21)Nc1ccc(Br)cc1 -17.5%
COc1ccc(NC(=O)CSC2=Nc3ccccc3C3=NC(Cc4ccccc4)C(=O)N23)cc1 (stereo unspecified) -29.8%
Cc1ccc(-n2c(=O)c3ccc(C(=O)NCc4ccccc4Cl)cc3n(CC(=O)Nc3ccc(C)cc3C)c2=O)cc1 -22.6%
Cc1cc(C)cc(C(=O)n2nc(C)c(S(=O)(=O)N3CCOCC3)c2C)c1 11.2%
O=C(CSc1ncc2c(n1)-c1ccccc1N(Cc1ccc(F)cc1)S2(=O)=O)NCCc1ccccc1 -9.13%
COc1cc(NC(=O)CN(c2cc(C)cc(C)c2)S(=O)(=O)c2c(C)[nH]c(=O)[nH]c2=O)cc(OC)c1 -3.6%
C#CC(C)(CC)NC(=O)Cn1nnc(-c2ccc(OCc3c(F)cccc3Cl)cc2)n1 (stereo unspecified) -18.1%
Cc1cn2c(=O)cc(COc3ccc(NC(=O)COc4ccccc4)cc3)nc2s1 4.64%
CCOc1ccc(-c2nc3ccccc3c(=O)o2)cc1 -14.9%
CCOC(=O)c1cccc(NC(=O)[C@H](CSCc2ccccc2)N2Cc3ccccc3C2=O)c1 -4.54%
Cc1ccc(Nc2cc(C)nc3nncn23)c(C)c1 -11.2%
CCOC(=O)c1c(NC(=O)c2ccc(F)cc2)sc2c1CCC(CC)C2 (stereo unspecified) -10.3%
CN1C(=O)c2[nH]nc(-c3ccc(F)cc3)c2C1c1cccc(O)c1 (stereo unspecified) -0.618%
CC(C)CCn1c(SCc2cccc(F)c2)nc2ccsc2c1=O 2.02%
Cc1cc(C)cc(Nc2nc3cc(Cl)c(Cl)cc3nc2-n2nc(C)cc2C)c1 -9.16%
Cn1cc(-c2cc3n(n2)CCC(=O)N3CCCC(=O)NCc2ccccc2Cl)c2ccccc21 -6.2%
COc1ccc2c(c1)-c1nc(NC(=O)c3cc(OC)c(OC)c(OC)c3)sc1CC2 -19.9%
CN1C(=O)C2(c3ccccc31)N(c1ccc(Br)cc1)C(=O)CS2(=O)=O (stereo unspecified) -21.3%
O=C(C1CCC(Cn2c(=O)c3sccc3n(Cc3ccc(F)cc3)c2=O)CC1)N1CCOCC1 (stereo unspecified) -7.14%
O=c1[nH]c(C2CCCN(S(=O)(=O)c3ccccc3)C2)nc2c1nnn2Cc1ccc(OC(F)(F)F)cc1 (stereo unspecified) -1.92%
CCc1ccc2oc(C(=O)NCc3ccccc3)cc(=O)c2c1 -31.9%
Cc1cc(C)cc(C(=O)N2CC(=O)Nc3ccc(Br)cc3C2c2ccccc2)c1 (stereo unspecified) -25.4%
CCCCOc1ccc(C2C(=O)N(C3CCCCC3)CC(=O)N2CCCC)cc1 (stereo unspecified) -10.7%
Cc1ccc(NC(=O)Cn2c(-c3nonc3N)nc3ccccc32)c(Br)c1 3.16%
CCOC(=O)c1noc2ncn(CC(=O)Nc3ccccc3OC)c(=O)c12 -3.7%
COc1cccc(CNC(=O)CCc2c(C)c3ccc(O)c(C)c3oc2=O)c1 -33.7%
CCCCN(CC)CCCNC(=O)c1ccc2c(c1)NC(=O)CN2C -9.33%
Cc1ccc(-n2ncc(C(=O)NCCCN3CCc4ccccc4C3)c2C2CCN(C(=O)OC(C)(C)C)CC2)c(C)c1 -5.64%
COc1ccc(-n2c(SCc3ccccc3)nc3c([nH]c4ccccc43)c2=O)cc1 -1.89%
COc1cccc(CNC(=O)Cn2nc(N3CCN(c4ccccc4OC)CC3)ccc2=O)c1 1.52%
CCOc1ccc(-n2c(=O)c3c(C)c(C)sc3n(Cc3ccccc3C)c2=O)cc1 -8.5%
COc1ccc(C)cc1NC(=O)CN1C(=O)COc2ccc(S(=O)(=O)N3CCC(C)CC3)cc21 -11.9%
Cc1c(Cl)cccc1NC(=O)C(C)n1c(=O)cc(C)c2c(C)nn(-c3ccccc3)c21 (stereo unspecified) -7.17%
Cc1nc2nc(SCC(=O)Nc3ccccc3Cl)nn2c(C)c1Cc1ccccc1 3.7%
CN(C)CCCNC(=O)C(=O)NCC(c1ccc2c(c1)OCO2)N1CCOCC1 (stereo unspecified) -8.48%
COc1cc2c(cc1OC)C(COc1ccc(F)cc1)N(C(=O)c1cccc(F)c1)CC2 (stereo unspecified) -13.3%
CN1CCN(C(=O)Cn2ncc3c4ccccc4n(Cc4ccc(F)cc4)c3c2=O)CC1 -16.3%
O=C(c1ccc(Br)cc1)N(Cc1cccs1)c1ccc(F)cc1 -6.74%
COc1cc(OC)c(NC(=O)c2cn(C3CCCC3)c(=O)c3c2c2ccccc2n3C)cc1Cl -10.8%
COc1ccc(-c2cnc(C)o2)cc1S(=O)(=O)Nc1ccc(F)cc1F -19.9%
Cc1cc(C)c(S(=O)(=O)Nc2ccc3oc4c(c3c2)C(=O)CC(C)(C)C4)cc1C -44.6%
Cc1noc(/C=C/c2cccs2)c1S(=O)(=O)N1CCC(C(=O)NCc2ccc(Cl)cc2)CC1 -11.9%
COc1cccc(C(=O)Nc2ccccc2OCc2cc(=O)n3ccccc3n2)c1 -5.16%
Cc1cccn2c(=O)c(/C=C(\C#N)c3nc4ccccc4s3)c(Oc3ccc(F)cc3)nc12 -23.9%
Cc1cc(N(CCO)Cc2ccccc2)n2nc(-c3ccc(C(C)(C)C)cc3)nc2n1 -6.66%
CCOCCn1ccc2c(OCC(=O)Nc3cccc([N+](=O)[O-])c3)cccc2c1=O -19.7%
COc1ccc(N(Cc2nnc3n2CCCCC3)C(=O)Nc2cccc(C)c2)cc1Cl 4.84%
COc1ccccc1CN1CCNC(=O)C1=O -11.4%
O=C(Cn1ncc2c3ccccc3n(Cc3ccccc3)c2c1=O)NC1CCCCCC1 -13.5%
CCOc1ccc(CN2CCc3nc(N4CCN(c5ccccn5)CC4)ncc3C2)cc1OC -7.15%
COc1ccc(NC(=O)C(CC(C)C)NC(=O)C2CCCCC2)cc1 (stereo unspecified) -13.1%
COc1ccccc1NC(=O)Cn1c(=O)n(-c2cccc(C)c2)c(=O)c2c1c1cc(C)ccc1n2C -0.828%
COc1ccc(-c2coc3c2c(C)cc2oc(=O)c(CC(=O)O)c(C)c23)cc1 -21.5%
Cn1c(=O)c2cc(C(=O)NC3CCCCCC3)sc2c2ccccc21 2.14%
CCn1c(=N)n(CC(O)COc2ccccc2)c2ccccc21 (stereo unspecified) -6.81%
CCCc1cnc2c(c1SCc1cccc(F)c1)c(=O)n(C)c(=O)n2C -14.5%
